Data from PubChem BioAssay AID1159614 (National Center for Advancing Translational Sciences (NCATS), 2016).
About 65 (0.1%) of roughly 45,000 compounds were called active. The call rests on the fitted dose curve; in most records, active means well fitted activation curve with a large enough effect; inconclusive means small, poorly fitted or top-dose-only effect; inactive means no such curve, though single readings can be large or run the other way. The list shows a part of the results.

Target: Galactocerebrosidase (Homo sapiens) (UniProt P54803)
Chain of UniProt P54803 (P54803 whole entry, looked up): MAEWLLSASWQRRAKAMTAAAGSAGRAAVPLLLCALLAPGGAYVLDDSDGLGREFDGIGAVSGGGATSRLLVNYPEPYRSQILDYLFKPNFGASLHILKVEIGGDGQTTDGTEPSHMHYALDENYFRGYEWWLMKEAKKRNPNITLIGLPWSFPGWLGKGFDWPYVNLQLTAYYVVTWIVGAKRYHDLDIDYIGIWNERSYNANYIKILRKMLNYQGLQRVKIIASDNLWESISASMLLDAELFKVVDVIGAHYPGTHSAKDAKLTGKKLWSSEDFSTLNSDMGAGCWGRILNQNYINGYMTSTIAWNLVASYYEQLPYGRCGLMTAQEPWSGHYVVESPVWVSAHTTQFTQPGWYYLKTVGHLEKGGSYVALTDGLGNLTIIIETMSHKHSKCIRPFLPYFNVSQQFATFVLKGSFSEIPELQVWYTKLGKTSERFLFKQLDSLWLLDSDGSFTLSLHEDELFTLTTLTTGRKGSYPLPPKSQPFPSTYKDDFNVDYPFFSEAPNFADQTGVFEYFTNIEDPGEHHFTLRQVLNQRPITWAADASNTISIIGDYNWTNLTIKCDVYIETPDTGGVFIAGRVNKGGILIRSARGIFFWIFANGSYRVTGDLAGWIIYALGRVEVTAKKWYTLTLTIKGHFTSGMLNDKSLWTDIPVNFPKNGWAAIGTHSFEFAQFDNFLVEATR
Assay: A Novel Cell-Based Assay to Identify Small Molecules for B -Galactocerebrosidase; further: 0% is about no effect; nearly all actives have a fitted effect of over 65% in size
Conditions: 145M-Twi-hGALC-G270D cells (Twitcher mouse brain line with human GALC G270D), HMU-beta-Gal fluorescence, 48 h; series mostly up to 57.5 µM; activation: at the top concentration
Summary of the method: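 Live 145M-Twi cells (Twitcher mouse brain-derived, GALC-null) stably expressing human GALC-G270D, with a wild-type GALC line, were compound-treated. Residual GALC activity was then read as fluorescence from 0.1 mM final HMU-β-gal at pH 5.2; higher signal means activation.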

activation, inactive:
N#Cc1c(-c2ccccc2)cc(-c2ccccc2)nc1SCC(O)CS(=O)(=O)Cc1ccc(Cl)cc1 (stereo not given) -22.8%, O=C1CN(C(=O)c2ccc(S(=O)(=O)N3CCCC3)cc2)C(c2ccccc2)c2cc(F)ccc2N1 (stereo not given) -12.7%, Cc1cccc(C)c1NC(=O)Cn1nnc(S(=O)(=O)c2ccccc2)c1N -15.2%, Cc1ccccc1-c1noc(-c2ccccc2OCC(=O)Nc2cccc([N+](=O)[O-])c2)n1 -13.6%, CCOC(=O)c1cc2c(=O)n3ccccc3nc2n(C(C)C)c1=NC(=O)C(C)(C)Oc1ccc(Cl)cc1 -12.6%, Cc1c(C(=O)NCCN(C)C)oc2c1-c1nn(Cc3cccc(Cl)c3)cc1CC2 -15.2%, Cc1nc(-c2ccc(F)cc2)sc1CCNC(=O)Cc1ccc(F)cc1 2.16%, CN(C)c1ccc(Nc2ncnc3c2c(-c2ccccc2)cn3-c2cccc(Cl)c2)cc1 -3.26%, CCn1cc(/C=C(\NC(=O)c2cc(OC)c(OC)c(OC)c2)C(=O)NCCCn2ccnc2)c2ccccc21 -23%, Cc1cc(NC(=O)Cc2ccccc2)cc(-c2nc3ccccc3o2)c1O -21.2%, COc1ccc(CCC(=O)NC2CC(=O)N(c3ccc(F)cc3)C2)cc1 (stereo not given) -6.65%, COc1ccccc1N1CCN(C(=O)CN2C(=O)COc3ccc(S(=O)(=O)N4CCOCC4)cc32)CC1 -5.97%, CCN(CC)C(=O)c1c(-c2ccccc2)c(-c2ccccc2)nn(CC)c1=O -11%, COc1ccc(-c2nc3sc(CCNC(=O)c4ccc(Br)o4)c(C)n3n2)cc1 3.87%, CCN(Cc1nc(-c2ccc(OC)c(OC)c2)no1)S(=O)(=O)c1ccc(OC)cc1 0.971%, Cc1cccc(S(=O)(=O)c2cn(Cc3ccccc3)c3cc(N4CCCCC4)c(F)cc3c2=O)c1 -10%, COC(=O)c1ccccc1NS(=O)(=O)c1cc2c(cc1C)N(C)CCO2 -3.49%, CSc1ccccc1NC(=O)CCS(=O)(=O)c1nc(-c2ccc3c(c2)OCO3)cc(C(F)(F)F)n1 -19.4%, Cc1ccc(S(=O)(=O)C(CNS(=O)(=O)c2cc(F)ccc2F)c2cccs2)cc1 (stereo not given) -21.1%, COc1cc(CNC(=O)c2cnc(SC)nc2-c2ccccc2)cc(OC)c1OC -9.22%, CC(C)(C)OC(=O)N1CCC(c2c(C(=O)NC3CCCCC3)cnn2-c2ccc(F)cc2F)CC1 -12.2%, O=C(CSc1nc(=O)n(Cc2ccccn2)c2c1CCC2)Nc1ccccc1 -12.7%, Cc1noc(C)c1S(=O)(=O)N(CC(=O)Nc1ccc(F)cc1F)c1ccc(C(C)C)cc1 -19%, CCCNC(=O)c1ccc2c(c1)nc1n2CCCCC1 -16.1%, Cc1ccc(NC(=O)C2CCN(S(=O)(=O)c3cccc4nsnc34)CC2)cc1F 16.9%, COc1ccc(Cn2ccc3nc(C)c(C(=O)Nc4cccc(SC)c4)cc3c2=O)cc1 -12.2%, Oc1c(C(Nc2ccccn2)c2ccccc2F)ccc2cccnc12 (stereo not given) -11.1%, COc1cccc(CNC(=O)Cn2ncn3nc(-c4cccs4)cc3c2=O)c1 -7.5%, O=C(O)c1ccccc1C(=O)Nc1ccc(Br)c2cccnc12 -6.64%, CCN1CCN(c2oc(-c3ccc(COc4ccccc4C)o3)nc2C#N)CC1 -12.6%, CC(=O)c1ccc(NS(=O)(=O)c2ccc3c(c2)NC(=O)CCS3)cc1 -22.4%, COc1ccc(NC(=O)C(=O)NCCc2csc3nc(-c4ccccc4F)nn23)cc1OC -5.41%, CCCN(CCC)CCCNC(=O)c1cc2c(=O)n(C)c3ccccc3c2s1 -9.37%, COc1ccc(-c2c(C)c3ccc(O)c(CN4CCC(C)CC4)c3oc2=O)cc1OC -5.18%, CC(=O)Nc1ccccc1-c1nc2ccccc2n(C(C)C(=O)Nc2ccccc2C(F)(F)F)c1=O (stereo not given) -10.9%, COc1ccc(C(Nc2ccccn2)c2ccc3ccc(C)nc3c2O)cc1C (stereo not given) -3.72%, COc1cccc(CNC(=O)c2ccc(-c3nc(CSc4ccccc4)c(C)o3)cc2)c1 -2.62%, CCn1cc2nc(SCc3ccccc3Cl)n(Cc3ccc(OC)cc3)c(=O)c2n1 -38.8%, COc1cc2c(c(OC)c1)C(c1cccc(F)c1F)CC(=O)N2 (stereo not given) -12%, CN1CCN(c2ncnc3c2cnn3-c2cccc(Cl)c2)CC1 -9.45%, Cc1ccc(CNC(=O)c2cc(=O)c3cc(C)ccc3o2)cc1 -8.46%, COc1cc(OC)c(OC)cc1/C=C/c1nc2cc3ccccc3cc2c(=O)n1-c1ccccc1Br -9.3%, COc1ccccc1CNS(=O)(=O)c1ccc2[nH]c3c(c2c1)CCCCC3 -2.04%, CCC(Sc1nc2ccccc2c2nc(CCc3c(C)n[nH]c3C)nn12)C(=O)Nc1ccc(F)cc1 (stereo not given) -11.5%, CC1=C(c2ccc(C)cc2)S(=O)(=O)N(Cc2ccc(C(=O)NCc3cccc(C)c3)cc2)C1=O -3.67%, COc1cccc(-n2nnc3c(sc4nc(C)cc(C)c43)c2=O)c1 2%, Cc1c(Cl)cccc1NC(=O)N1CCC(CN2CCCC2)CC1 -6.91%, CSc1ccc(CNC(=O)CCn2ccc3cc(S(=O)(=O)N4CCC(C)CC4)ccc32)cc1 6.78%, COc1ccc(N2CCN(C(=O)c3cnc(N4CCCC4)nc3C)CC2)cc1 -11.8%, COc1ccc(-c2cc3nc(-c4ccccc4)cc(C(F)(F)F)n3n2)cc1 -3.67%, COc1ccc(CCNC(=O)Cc2c(C)c3c(cc(C)c4c(C)coc43)oc2=O)cc1 -11%, COc1ccc(CCNC(=O)CN(c2ccccc2OC)S(=O)(=O)c2ccc(C)cc2)cc1 -5.97%, COC(=O)c1c(NC(=O)c2cc(=O)c3ccc(C)c(C)c3o2)sc2c1CCCC2 -14.8%, O=C(Nc1sc2c(c1C(=O)Nc1ccccc1Cl)CCCC2)c1ccccc1F -7.14%, Cc1ccc(NC(=O)CSc2nc(C)c(Cc3ccccc3)c(=O)[nH]2)cc1 -33.6%, COC(=O)c1ccc(NC(=O)CSc2nc3ccc(OC)cc3[nH]2)cc1 -13.4%, COCCCNC(=O)Cn1c(=O)n(Cc2ccc(C(=O)NCc3ccc(C)cc3)cc2)c(=O)c2ccccc21 -8.26%, O=C(NCc1ccccc1Br)C1CCCN(C(=O)N2CCOc3ccccc32)C1 (stereo not given) -37%, COc1cc(OC)c(NC(=O)c2nnn(Cc3ccc(C)cc3)c2N)cc1Cl -14%, CCc1ccc(NC(=O)c2cc(S(=O)(=O)NC3CCCC3)ccc2F)cc1 -39%, Cc1ccc(NC(=O)c2c(NC(=O)c3ccco3)sc3c2CCC(C(C)(C)C)C3)c(C)c1 (stereo not given) 0.77%, COC(=O)c1cc(NC(=O)c2oc(=O)c3ccccc3c2-c2ccccc2)cc(C(=O)OC)c1 -13.7%, Cc1ccc(NC(=O)CN2C(=O)CSc3ccc(S(=O)(=O)N4CCCC4)cc32)cc1F -14%, Cc1cc(C)c2oc(-c3cccc(NC(=O)c4ccc(Br)o4)c3)nc2c1 -10.8%, Cc1ccccc1Cn1cc(CCC(=O)NC(C)c2ccccc2)c2ccccc21 (stereo not given) -8.86%, CCC(C)c1ccc(OCC(=O)Nc2cccc(-c3nc4ncccc4o3)c2)cc1 (stereo not given) -4.62%, CCOc1ccc(NC(=O)c2oc3ccccc3c2NC(=O)Cc2ccc(F)cc2)cc1 -6.19%, COc1cccc(-c2cn3c(n2)sc2cc(C(=O)NC4CCCCCC4)ccc23)c1 -7.84%, O=C(Cc1ccc(F)cc1)NC1CC(=O)N(c2ccc3c(c2)OCCO3)C1 (stereo not given) 11.8%, O=C(Cn1ncc2c3ccccc3n(Cc3ccc(Cl)cc3)c2c1=O)N1CCCCCC1 -9.96%, COc1ccc(Br)cc1CNC(=O)Cn1c(=O)c2cccn2c2ccc(F)cc21 1.45%, Clc1ccccc1N1CCN(c2ncnc3c2c(-c2ccccc2)cn3-c2ccccc2)CC1 -20.2%, CCN(CC)c1nn2c(=O)c(C(=O)NCc3ccc(OC)cc3OC)cnc2s1 -10.6%, CC(=O)N1c2ccc(S(=O)(=O)NCC3CCC(C(=O)NC(C)(C)C)CC3)cc2CC1C (stereo not given) -17.3%, Cc1ccc(S(=O)(=O)N(CC(=O)Nc2ccc(C(C)C)cc2)Cc2ccccc2)cc1 -2.01%, Cc1ccccc1NC(=O)CCC(=O)N1CCSc2ccccc21 -3.16%, O=C(NCC(c1cccs1)S(=O)(=O)c1cccs1)c1ccccc1F (stereo not given) -6.89%, O=C(Nc1ccc2c(c1)CCCN2C(=O)c1cccs1)c1cccc(C(F)(F)F)c1 4.92%, COc1ccccc1CNC(=O)c1ccccc1NC(=O)c1nsc2ccccc12 -14%, CCOC(=O)c1[nH]c2ccccc2c1NC(=O)c1ccccc1OCC -3.54%, Cc1ccc(-n2nc3ccc(NC(=O)c4oc5ccccc5c4C)cc3n2)cc1 -4.11%, Cc1cccc(N2CCN(C(=O)c3cc(S(=O)(=O)N4CCC(C)CC4)cn3C)CC2)c1C -16.2%, CC(C)(C)OC(=O)N1CCC(c2c(C(=O)NCCN3CCC(Cc4ccccc4)CC3)cnn2-c2cccc(Cl)c2)CC1 5.82%, CCN(C(=O)c1noc2c1COc1ccc(C)cc1-2)c1cccc(C)c1 -3.54%, O=C(Nc1ccccc1F)c1nc(S(=O)(=O)Cc2ccccc2F)ncc1Cl -3.62%, CCOc1ccc(-c2nnc(SCC(=O)NC3CCCC3)nc2-c2ccc(OCC)c(OC)c2)cc1OC -17.3%, Clc1cccc(-n2ncc3c(NC4CCCCC4)ncnc32)c1 -5.86%, CCOc1ccc(CCNC(=O)C2CCN(c3ncnc4c3nc3n4CCCCC3)CC2)cc1 -21.6%, CCOC(=O)C1CCN(C(=O)c2cc3ccc4cccnc4c3[nH]2)CC1 -11.4%, O=C(NCc1ccc(Cl)cc1)C(=O)NCC(c1cccs1)S(=O)(=O)c1ccc(Cl)cc1 (stereo not given) -6.83%, O=C(NCCCN1CCN(c2ccccc2)CC1)c1nnc(Cc2c(F)cccc2Cl)o1 -0.775%, CCCNC(=O)c1ccc2c(c1)N=C(C)c1c(C)ccc(C)c1S2 -5.36%, Cc1nc2c(c(C)c1CCC(=O)N1CCN(c3ccccc3)CC1)c(=O)n(C)c(=O)n2C 1.86%, COc1ccc(C2C=C(c3ccccc3)Nc3nc(NS(=O)(=O)c4ccccc4)nn32)cc1 (stereo not given) 0.612%, Cc1cc(C)c(S(=O)(=O)Nc2ccc3oc4c(c3c2)CCCC4)cc1C -16.2%
